Test results taken from a compilation of properties of binary mixtures (doi:10.1016/j.molliq.2016.08.002).
Some of these densities may be calculated back from excess volumes.

Test: xn = mol fraction of the nth substance listed
Details: 101 kPa

CC[n+]1ccn(C)c1.COS(=O)(=O)[O-] + CCCCCCO
mass density [kg/m3]
Details | 298.15 K | 303.15 K | 308.15 K | 313.15 K
x2 = 0.0409 | 1271.5 | 1268.4 | 1265.2 | 1262
x2 = 0.0677 | 1262.4 | 1259.3 | 1256 | 1252.8
x2 = 0.1329 | 1239.3 | 1236.2 | 1232.9 | 1229.7
x2 = 0.1958 | – | – | – | 1206.4
x2 = 0.2565 | – | – | 1186.2 | 1182.9
x2 = 0.3716 | 1145.8 | 1142.4 | – | 1135.7
x2 = 0.4791 | – | 1095.2 | 1091.6 | 1088.2
x2 = 0.5798 | – | – | 1044.2 | –
x2 = 0.6742 | 1004.3 | 1000.5 | 996.7 | 993.2
x2 = 0.763 | 957.2 | 953.3 | 949.4 | 945.7
x2 = 0.8466 | 910.1 | 906.1 | 902.2 | 898.5
x2 = 0.9255 | 863.1 | 859.1 | 855.1 | 851.4

CC[n+]1ccn(C)c1.COS(=O)(=O)[O-] + CCCO
mass density [kg/m3]
Details | 298.15 K | 303.15 K | 308.15 K | 313.15 K
x2 = 0.0664 | 1271.7 | 1268.5 | 1265.5 | 1262.5
x2 = 0.108 | 1262.6 | 1259.4 | 1256.5 | –
x2 = 0.2036 | 1239.6 | 1236.5 | – | 1230.9
x2 = 0.2888 | 1216.5 | 1213.4 | 1210.7 | –
x2 = 0.3652 | 1192.9 | 1190 | 1187.3 | 1184.3
x2 = 0.4965 | – | – | 1139.7 | 1136.8
x2 = 0.6054 | 1097.2 | 1094.5 | 1091.3 | 1088.4
x2 = 0.6971 | 1048.5 | 1045.7 | 1042.2 | 1039.3
x2 = 0.7754 | 999.1 | 996.3 | 992.6 | 989.8
x2 = 0.843 | 949.7 | 946.6 | 942.7 | 939.8
x2 = 0.902 | 899.9 | – | 892.6 | 889.4
x2 = 0.9539 | 849.8 | – | 842.4 | –

CC[n+]1ccn(C)c1.COS(=O)(=O)[O-] + CCCCCO
mass density [kg/m3]
Details | 298.15 K | 303.15 K | 308.15 K | 313.15 K
x2 = 0.0469 | 1271.6 | – | 1265.3 | 1262.3
x2 = 0.0773 | 1262.5 | – | 1256.4 | 1253.3
x2 = 0.1502 | – | 1236.4 | – | 1230.3
x2 = 0.2192 | – | 1213 | 1210 | 1207.1
x2 = 0.2845 | 1192.8 | 1189.5 | 1186.4 | 1183.4
x2 = 0.4054 | 1145.4 | 1142 | 1138.8 | 1135.8
x2 = 0.5147 | – | 1094.1 | – | 1087.6
x2 = 0.614 | 1049.7 | 1046.1 | 1042.7 | 1039.4
x2 = 0.7047 | 1001.8 | 998 | 994.6 | 991.1
x2 = 0.7878 | 953.9 | 950 | – | 942.9
x2 = 0.8642 | 906.2 | – | 898.7 | –
x2 = 0.9347 | 858.5 | 854.5 | 851 | 847.1

CC[n+]1ccn(C)c1.COS(=O)(=O)[O-] + CCCCO
mass density [kg/m3]
Details | 298.15 K | 303.15 K | 308.15 K | 313.15 K
x2 = 0.0552 | 1271.5 | 1268.3 | 1265.1 | 1262
x2 = 0.0904 | – | 1259.1 | 1256 | 1253
x2 = 0.1734 | 1239 | 1235.9 | 1232.9 | 1230
x2 = 0.25 | 1215.5 | – | – | 1207
x2 = 0.3207 | 1192 | 1189.2 | 1186.2 | 1183.6
x2 = 0.4473 | 1144.6 | 1141.8 | 1138.9 | 1136.4
x2 = 0.5573 | 1096.9 | – | – | –
x2 = 0.6538 | 1048.8 | – | 1042.8 | –
x2 = 0.7391 | 1000.4 | 997.5 | 994.3 | 991.4
x2 = 0.815 | 951.9 | 948.8 | 945.4 | 942.3
x2 = 0.8831 | 903.3 | 900 | 896.5 | 893.1
x2 = 0.9444 | – | 851 | 847.4 | 843.8
